Numbering of substitutions follows the chain as printed.
B1: 133 (antibody)
heavy: EVQLVQSGAEVKKPGASVKVSCKVSGYTLTELSMQWVRQAPGKGLEWMGGFDPDDAETMYAEKFQGRLTVTEDTSTDTVYMELSSLRSEDTAVYFCATSPGYDFFDYWGQGTLVTVSSASTKGPSVFPLAPSSKSTSGGTAALGCLVKDYFPEPVTVSWNSGALTSGVHTFPAVLQSSGLYSLSSVVTVPSSSLGTQTYICNVNHKPSNTKVDKRV[omitted - human IgG1 Fc with changes]
light: SYELTQPPSVSVAPGKTARITCGGDNIGSKSVHWYQQKPGQAPVLVVYDDSDRPSGIPERFSGSNSGNTATLTINRVEAGDEADYYCQVWDSSNDLLIFGGGTKLTVLGQPKAAPSVTLFPPSSEELQANKATLVCLISDFYPGAVTVAWKADSSPVKAGVETTTPSKQSNNKYAASSYLSLTPEQWKSHRSYSCQVTHEGSTVEKTVAPTECS
B2: 143 (antibody)
heavy: EVQLVQSGAEVKKPGASVKVSCKVSGYTLTELSMQWVRQAPGKGLEWMGGFDPDDAETMYAEKFQGRLTVTEDTSTDTVYMELSSLRSEDTAVYFCATSPGYDFFDYWGQGTLVTVSSASTKGPSVFPLAPSSKSTSGGTAALGCLVKDYFPEPVTVSWNSGALTSGVHTFPAVLQSSGLYSLSSVVTVPSSSLGTQTYICNVNHKPSNTKVDKRV[omitted - human IgG1 Fc with changes]
light: B1 light with E3V, N75S
B3: 142 (antibody)
heavy: EVQLVQSGAEVKKPGASVKVSCKVSGYTLTELSMQWVRQAPGKGLEWMGGFDPDEGETMYAEKFQGRLTVTEDTSTDTVYMELSSLRSEDTAVYFCATSPGYDFFDYWGQGTLVTVSSASTKGPSVFPLAPSSKSTSGGTAALGCLVKDYFPEPVTVSWNSGALTSGVHTFPAVLQSSGLYSLSSVVTVPSSSLGTQTYICNVNHKPSNTKVDKRV[omitted - human IgG1 Fc with changes]
light: B1 light with E3V, N75S
B4: 78 (antibody)
heavy: EVQLVQSGAEVKKPGASVKVSCKVSGYTLTELSMQWVRQAPGKGLEWMGGFDPDEGETMYAEKFQGRLTVTEDTSTDTVYMELRSLTSEDTALYFCATSPGYDFFDYWGQGTLVTVSSASTKGPSVFPLAPSSKSTSGGTAALGCLVKDYFPEPVTVSWNSGALTSGVHTFPAVLQSSGLYSLSSVVTVPSSSLGTQTYICNVNHKPSNTKVDKRV[omitted - human IgG1 Fc with changes]
light: B1 light with E3V, D25N, N75S
B5: 187 (antibody)
heavy: EVQLVQSGAEVKKPGASVKVSCKVSGYTLTELSMQWVRQAPGKGLEWMGGFDPDSGETMYAEKFQGRLTVTEDTSTDTVYMELSSLRSEDTAVYFCATSPGYDFFDYWGQGTLVTVSSASTKGPSVFPLAPSSKSTSGGTAALGCLVKDYFPEPVTVSWNSGALTSGVHTFPAVLQSSGLYSLSSVVTVPSSSLGTQTYICNVNHKPSNTKVDKRV[omitted - human IgG1 Fc with changes]
light: B1 light with E3V, K16Q, D25S, N26D, S29D, K30E, S31I, N75S, N94S, L96H
B6: 72 (antibody)
heavy: EVQLVQSGAEVKKPGASVKVSCKVSGYTLTELSMQWVRQAPGKGLEWMGGFDPDSGETMYAEKFQGRLTVTEDTSTDTVYMELSSLRSEDTAVYFCATSPGYDFFDYWGQGTLVTVSSASTKGPSVFPLAPSSKSTSGGTAALGCLVKDYFPEPVTVSWNSGALTSGVHTFPAVLQSSGLYSLSSVVTVPSSSLGTQTYICNVNHKPSNTKVDKRV[omitted - human IgG1 Fc with changes]
light: SYVLTQPPSVSVAPGKTARITCTGTSSDVGGYNYVSWYQQKPGQAPVLVVYEVSNRPSGIPERFSGSNSGNTATLTISRVEAGDEADYYCQVWDSSNDLLIFGGGTKLTVLGQPKAAPSVTLFPPSSEELQANKATLVCLISDFYPGAVTVAWKADSSPVKAGVETTTPSKQSNNKYAASSYLSLTPEQWKSHRSYSCQVTHEGSTVEKTVAPTECS
B7: 62 (antibody)
heavy: EVQLVQSGAEVKKPGASVKVSCKVSGYTLTELSMQWVRQAPGKGLEWMGGFDPDSGETMYAEKFQGRLTVTEDTSTDTVYMELSSLRSEDTAVYFCATSPGYDFFDYWGQGTLVTVSSASTKGPSVFPLAPSSKSTSGGTAALGCLVKDYFPEPVTVSWNSGALTSGVHTFPAVLQSSGLYSLSSVVTVPSSSLGTQTYICNVNHKPSNTKVDKRV[omitted - human IgG1 Fc with changes]
light: QSALTQPASVSGSPGQSITISCTGTSSDVGGYNYVSWYQQHPGKAPKLMIYEVSNRPSGVSNRFSGSNSGNTATLTINRVEAGDEADYYCQVWDSSNDLLIFGGGTKLTVLGQPKAAPSVTLFPPSSEELQANKATLVCLISDFYPGAVTVAWKADSSPVKAGVETTTPSKQSNNKYAASSYLSLTPEQWKSHRSYSCQVTHEGSTVEKTVAPTECS
B8: 137 (antibody)
heavy: EVQLVQSGAEVKKPGASVKVSCKVSGYTLTELSMQWVRQAPGKGLEWMGGFDPDEGETMYAEKFQGRLTVTEDTSTDTVYMELRSLTSEDTALYFCATSPGYDFFDYWGQGTLVTVSSASTKGPSVFPLAPSSKSTSGGTAALGCLVKDYFPEPVTVSWNSGALTSGVHTFPAVLQSSGLYSLSSVVTVPSSSLGTQTYICNVNHKPSNTKVDKRV[omitted - human IgG1 Fc with changes]
light: B1 light with E3V, N75S
B9: 172 (antibody)
heavy: EVQLVQSGAEVKKPGASVKVSCKVSGYTLTELSMQWVRQAPGKGLEWMGGFDPDSGETMYAEKFQGRLTVTEDTSTDTVYMELRSLTSEDTALYFCATSPGYDFFDYWGQGTLVTVSSASTKGPSVFPLAPSSKSTSGGTAALGCLVKDYFPEPVTVSWNSGALTSGVHTFPAVLQSSGLYSLSSVVTVPSSSLGTQTYICNVNHKPSNTKVDKRV[omitted - human IgG1 Fc with changes]
light: SYVLTQPPSVSVAPGQTARITCGGSDIGDEIVHWYQQKPGQAPVLVVYDDSDRPSGIPERFSGSNSGNTATLTISRAQAGDEADYYCQVWDSSSDHLIFGGGTKLTVLGQPKAAPSVTLFPPSSEELQANKATLVCLISDFYPGAVTVAWKADSSPVKAGVETTTPSKQSNNKYAASSYLSLTPEQWKSHRSYSCQVTHEGSTVEKTVAPTECS
B10: 127 (antibody)
heavy: EVQLVQSGAEVKKPGASVKVSCKVSGYTLTELSMQWVRQAPGKGLEWMGGFDPDEGETMYAEKFQGRLTVTEDTSTDTVYMELRSLTSEDTALYFCATSPGYDFFDYWGQGTLVTVSSASTKGPSVFPLAPSSKSTSGGTAALGCLVKDYFPEPVTVSWNSGALTSGVHTFPAVLQSSGLYSLSSVVTVPSSSLGTQTYICNVNHKPSNTKVDKRV[omitted - human IgG1 Fc with changes]
light: B1 light
B11: 132 (antibody)
heavy: EVQLVQSGAEVKKPGASVKVSCKVSGYTLTELSMQWVRQAPGKGLEWMGGFDPDEGETMYAEKFQGRLTVTEDTSTDTVYMELSSLRSEDTAVYFCATSPGYDFFDYWGQGTLVTVSSASTKGPSVFPLAPSSKSTSGGTAALGCLVKDYFPEPVTVSWNSGALTSGVHTFPAVLQSSGLYSLSSVVTVPSSSLGTQTYICNVNHKPSNTKVDKRV[omitted - human IgG1 Fc with changes]
light: B1 light

Target: T1, recombinant MBP-mutCALR Type 1 fusion protein (Homo sapiens, UniProt P27797, DEL40-40)
T1 construct: His6 (N); purchased Cepter (cepterbiopartners.com), custom made
Assay: Biacore SPR binding kinetics, Experiment 2 (parental and variant antibodies)
Details: Biacore 8K, 25° C., 1:1 binding model
Protocol: The amino acid sequence of recombinant MBP-mutCALR Type 1 fusion protein used in Experiments 1 and 2 is:
Experiment 2: Recombinant MBP-mutCALR Type 1 fusion protein was custom made at Cepter (cepterbiopartners.com). Data for the interaction of antibodies with recombinant mutCALR protein were collected at 25° C. on a Biacore 8K instrument (Cytiva, Marlborough, Mass.), and all reagents were obtained from Cytiva unless otherwise specified. The experiments were conducted using Tris-buffered saline (pH 7.2), 0.005% Surfactant P20, 1 mM CaCl2) as running buffer. To prepare the capture surfaces, anti-human IgG (Fc) antibodies (Product #29234600) was amine-coupled onto a CM4 chip (Product #BR100534) under standard conditions using an Amine Coupling Kit (Product #BR100050). Anti-mutCALR antibodies were captured onto the chip surface by injecting over flow cell 2 only at a flow rate of 10 μL/min for 30 seconds. […] Recombinant MBP-mutCALR Type 1 fusion protein was prepared at nominal concentrations of 0, 0.75, 2.22, 6.67, 20, and 60 nM and injected over both flow cells 1 and 2 for 150 seconds at a flow rate of 69 L/min, followed by a 230-second dissociation phase at the same flow rate. The kinetics parameters were obtained by applying 1:1 binding model to fit the data from multiple-cycle injection experiments using Biacore Insight Evaluation software.

B1 and B2 are within 1.5-fold of each other in “ka” value: 8.51e+06 M⁻¹ s⁻¹ for the first, 5.74e+06 M⁻¹ s⁻¹ for the second.

B3 and B4 are within 1.5-fold of each other in “ka” value: 1.19e+06 M⁻¹ s⁻¹ for the first, 873000 M⁻¹ s⁻¹ for the second.

Compared with B5, B6 is 9.8-fold lower in “ka” value: 1e+07 M⁻¹ s⁻¹ for the first, 1.02e+06 M⁻¹ s⁻¹ for the second.

First: B7
Second: B8
The “ka” value of the first is 2.1-fold lower: 3.52e+06 M⁻¹ s⁻¹ for the first, 7.51e+06 M⁻¹ s⁻¹ for the second.

Compared with B9, B10 is 6.2-fold higher in “ka” value: 1.12e+06 M⁻¹ s⁻¹ for the first, 6.92e+06 M⁻¹ s⁻¹ for the second.

In the case of B11, the “ka” value is reported as 1.13e+06 M⁻¹ s⁻¹.

B1 and B2 are within 1.5-fold of each other in “kd” value: 0.00702 s⁻¹ for the first, 0.00753 s⁻¹ for the second.

B3 and B4 are within 1.5-fold of each other in “kd” value: 0.00269 s⁻¹ for the first, 0.0024 s⁻¹ for the second.

Compared with B5, B6 is 4.3-fold lower in “kd” value: 0.0163 s⁻¹ for the first, 0.00382 s⁻¹ for the second.

First: B7
Second: B8
The “kd” value of the first is 1.5-fold lower: 0.00621 s⁻¹ for the first, 0.0095 s⁻¹ for the second.

Going from B9 to B10, the “kd” value rises from 0.0025 s⁻¹ to 0.00899 s⁻¹ (3.6-fold).

In the case of B11, the “kd” value is reported as 0.00244 s⁻¹.
